Source: PMC4336329 (PLoS ONE, 2015)
About 14,000 (4.5%) of roughly 310,000 compounds showed an effect of 50% or more. The effect is printed as a negative number. Some of the results follow.

Target: human ether-à-go-go-related gene (hERG) potassium channel (human, UniProt Q12809)
Assay: primary screen, population patch clamp on CHO cells stably expressing hERG
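Further: peak tail current of the secondary pulse compared with the same well before compound.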

human ether-à-go-go-related gene (hERG) potassium channel, sequence (Q12809 whole entry, looked up): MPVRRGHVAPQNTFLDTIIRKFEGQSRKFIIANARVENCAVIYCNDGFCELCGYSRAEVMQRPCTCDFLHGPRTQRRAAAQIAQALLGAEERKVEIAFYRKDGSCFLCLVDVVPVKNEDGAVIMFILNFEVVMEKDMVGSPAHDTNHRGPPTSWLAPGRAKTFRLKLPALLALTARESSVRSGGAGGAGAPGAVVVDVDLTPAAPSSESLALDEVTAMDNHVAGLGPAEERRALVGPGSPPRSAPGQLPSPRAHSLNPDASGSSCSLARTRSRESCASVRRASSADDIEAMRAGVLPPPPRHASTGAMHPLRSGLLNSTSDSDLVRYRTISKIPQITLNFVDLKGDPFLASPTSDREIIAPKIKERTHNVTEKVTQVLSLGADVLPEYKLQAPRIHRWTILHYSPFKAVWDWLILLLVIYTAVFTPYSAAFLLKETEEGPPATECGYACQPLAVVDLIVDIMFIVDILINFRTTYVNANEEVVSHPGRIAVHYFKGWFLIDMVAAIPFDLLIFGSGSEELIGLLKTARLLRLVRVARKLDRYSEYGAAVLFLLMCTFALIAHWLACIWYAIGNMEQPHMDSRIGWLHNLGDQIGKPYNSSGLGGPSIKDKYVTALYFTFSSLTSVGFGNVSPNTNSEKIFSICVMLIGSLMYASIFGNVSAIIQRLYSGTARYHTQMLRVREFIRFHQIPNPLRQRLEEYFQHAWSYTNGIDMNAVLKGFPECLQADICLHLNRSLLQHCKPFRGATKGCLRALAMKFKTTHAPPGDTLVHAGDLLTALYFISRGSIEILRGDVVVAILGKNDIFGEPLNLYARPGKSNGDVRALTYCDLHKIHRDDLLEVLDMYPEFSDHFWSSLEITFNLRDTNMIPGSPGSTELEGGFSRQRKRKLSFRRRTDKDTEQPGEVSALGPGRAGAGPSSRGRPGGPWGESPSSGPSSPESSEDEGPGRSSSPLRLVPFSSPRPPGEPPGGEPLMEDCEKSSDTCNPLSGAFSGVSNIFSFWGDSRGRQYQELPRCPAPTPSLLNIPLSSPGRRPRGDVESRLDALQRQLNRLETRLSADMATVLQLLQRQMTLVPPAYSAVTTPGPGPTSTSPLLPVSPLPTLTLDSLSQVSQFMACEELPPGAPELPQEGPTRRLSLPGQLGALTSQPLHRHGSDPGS

| Structure (SMILES) | hERG current change (%, negative = inhibition) at 10uM [%] |
| --- | --- |
| O=C(CN(CCc1ccccc1)C(=O)Cn1nnc(-c2cccs2)n1)NCc1ccco1 | -38.7 |
| CCOC(=O)N1CCC(N2C(=O)c3ccccc3C2Nc2cc(Cl)c(OC)cc2OC)CC1 (centres unmarked) | -45.5 |
| O=C(c1cc2ccccc2o1)N(Cc1nnc(-c2ccccc2Cl)o1)C1CC1 | -21.2 |
| CC(=O)Nc1ccc(S(=O)(=O)N2CCC(NC(C)=O)(c3cccc(F)c3)CC2)cc1 | -12.4 |
| CCCCn1c(N)c(N(CCOC)C(=O)C2CC(=O)N(Cc3ccco3)C2)c(=O)[nH]c1=O (centres unmarked) | 14 |
| COc1cc(C)c(Br)cc1S(=O)(=O)N1CCCC1 | -22.1 |
| Cc1cc(C(=O)OCC(=O)c2cccc([N+](=O)[O-])c2)c2cccc(C)c2n1 | -2.1 |
| O=C(NC1CCCc2ccccc21)C1CCN(S(=O)(=O)N2CCCCCC2)CC1 (centres unmarked) | -12.8 |
| COc1ccc2c(c1OC)C(=O)O[C@@H]2[C@H]1c2c(cc3c(c2OC)OCO3)CCN1C | -2.49 |
| CCN1CCN(CCCNC(=O)C2c3ccccc3C(=O)N(c3ccc(OC)cc3)C2c2ccc(OC)cc2)CC1 (centres unmarked) | 1.22 |
| CSc1ccccc1C(=O)Nc1ccc(C)cc1C | -7.51 |
| Cc1cccc(OCC(=O)NC(=S)N2CCCc3ccccc32)c1 | 8.58 |
| COc1ccc(/C=C/C(=O)NC(=S)NNC(=O)c2c(-c3ccccc3)noc2C)cc1 | 11.4 |
| Cc1cc[n+]2cc(-c3cccc([N+](=O)[O-])c3)c(-c3cccc([N+](=O)[O-])c3)cc2c1.[Br-] | -39.9 |
| Cc1ccc(/C=[N+](\[O-])c2ccccc2C)o1 | 14.7 |
| COc1ccc(OC)c(C2CC(c3ccccc3)=NN2C(=S)Nc2ccccc2)c1 (centres unmarked) | -5.72 |
| Oc1cccc(NC(=S)Nc2ccc(SC(F)F)cc2)c1 | -6.06 |
| O=c1ccc2cc3c([nH]c4ccc(Br)cc43)oc-2c1O | 0.273 |
| CC(=O)Nc1ccc(NC(=O)c2cc(-n3cnnc3)ccc2Cl)cc1 | 15.7 |
| COc1ccc(S(=O)(=O)Nc2cc(C)ccn2)cc1 | 2.78 |
| COc1ccc(-c2cnnc(N/N=C/C(C)=C/c3ccccc3)n2)cc1 | -9.57 |
| CCCN1CNc2c(c(=O)[nH]c(=S)n2CCc2ccccc2)C1 | 25.7 |
| CC(C)c1onc(C(=O)NCc2ccc(F)cc2)c1[N+](=O)[O-] | -1.24 |
